# Results: patent US12559529B2, “NPY2 receptor agonists” (Boehringer Ingelheim International GmbH, priority 2019, dated 2026)
# At least one compound was matched to its structure with a doubt left. *1 amine or outer side, *2 acyl side, *3 side chain or, on linkers, in order; H or OH if unused. Where a SMILES comes first, the peptide text is derived from it. Side-chain parts run from the residue outwards. The star is where a group is joined. C18 diacid = O=C(O)CCCCCCCCCCCCCCCCC(=O)*; γGlu = O=C(O)[C@H](CCC(=O)[*:2])N[*:1]; Isovaleryl = CC(C)CC(=O)*; AEEA = NCCOCCOCC(=O)O
# Test system: normal NMRI mice
# Assay: Effect on acute food intake in normal NMRI mice
# Assay type: in vivo
# Conditions: male NMRI mice, 10 nmol/kg subcutaneously once
# Description: Male NMRI mice were obtained from Charles River (Charles River, Research Models & Services Germany GmbH) or from Jan Vier (Jan Vier Labs, France) at 5 weeks of age. […] Room temperature was controlled to 21° C.±1° C., with 60%+20% humidity.
# Animals were transferred 5-7 days before the start of the study to a real-time food intake monitoring system, HM-2 system (MBRose, Denmark), to allow acclimatization to experimental conditions. As the animals were uniquely identified with microchips, each individual animal was identified by its microchip upon entry and exit from the food channel. Randomization of the mice for each study group (n=7-8) was based on body weight measured the day before the start of the study. A vehicle-treated (50 mM phosphate buffer pH7 with 5% Mannitol) group was included in each experiment. Six hours before the start of the night phase animals were fasted. One hour before the dark phase animals were dosed once subcutaneously (10 nmol/kg) with test peptide. […] The food intake of the treated groups was normalized (in %) to the average food intake of the group receiving vehicle (Table 7). Statistical significance was evaluated using One-way analysis of variance with Turkey's multiple comparison test. P<0.05 was considered statistically significant.
row,Structure (SMILES),Acute Food Intake 24 h [% vehicle]
1,"CC(C)CC(=O)N[C@@H](C)C(=O)N1CCC[C@H]1C(=O)N[C@@H](CCC(=O)O)C(=O)N[C@@H](CCCCNC(=O)COCCOCCNC(=O)COCCOCCNC(=O)CC[C@H](NC(=O)CCCCCCCCCCCCCCCCC(=O)O)C(=O)O)C(=O)N1CCC[C@H]1C(=O)N[C@@H](CCC(=O)O)C(=O)N[C@@H](CCC(=O)O)C(=O)N[C@@H](CC(=O)O)C(=O)N[C@@H](C)C(=O)N[C@@H](CCC(N)=O)C(=O)N1CCC[C@H]1C(=O)N[C@@H](CCC(=O)O)C(=O)N[C@@H](CCC(=O)O)C(=O)N[C@@H](CC(C)C)C(=O)N[C@@H](CCC(N)=O)C(=O)N[C@@H](CCC(=O)O)C(=O)N[C@@H](Cc1ccc(O)cc1)C(=O)N[C@@H](Cc1ccc(O)cc1)C(=O)N[C@H](C(=O)N[C@@H](CO)C(=O)N[C@@H](CC(C)C)C(=O)N[C@@H](CCCNC(=N)N)C(=O)N[C@@H](Cc1c[nH]cn1)C(=O)N[C@@H](Cc1ccc(O)cc1)C(=O)N[C@@H](Cc1ccc(O)cc1)C(=O)N[C@@H](CC(N)=O)C(=O)N[C@@H](Cc1c[nH]c2ccccc12)C(=O)N[C@@H](CC(C)C)C(=O)N[C@H](C(=O)N[C@@H](CCCNC(=N)N)C(=O)N[C@@H](CCC(N)=O)C(=O)N[C@@H](CCCNC(=N)N)C(=O)N[C@@H](Cc1ccc(O)cc1)C(N)=O)[C@@H](C)O)C(C)C [Compound 1, N{alpha-4}-(3-methylbutanoyl)-N{epsilon-7}-[2-(2-{2-[2-(2-{2-[(4S)-4-carboxy-4-(17-carboxyheptadecanamido)butanamido]ethoxy}ethoxy)acetamido]ethoxy}ethoxy)acetamido]-[4A,7K,9E,13Q,18Q,19E,22V,28Y,30W,31L]hPYY (4-36)] (Isovaleryl-APEK([AEEA-AEEA-γGlu-C18 diacid])PEEDAQPEELQEYYVSLRHYYNWLTRQRY-NH2)",77 % vehicle
2,"CC(C)CC(=O)N[C@@H](C)C(=O)N1CCC[C@H]1C(=O)N[C@@H](C)C(=O)N[C@@H](CCCCNC(=O)COCCOCCNC(=O)COCCOCCNC(=O)CC[C@H](NC(=O)CCCCCCCCCCCCCCCCC(=O)O)C(=O)O)C(=O)N1CCC[C@H]1C(=O)N[C@@H](CCC(=O)O)C(=O)N[C@@H](CCC(=O)O)C(=O)N[C@@H](CCC(=O)O)C(=O)N[C@@H](C)C(=O)N[C@@H](CO)C(=O)N1CCC[C@H]1C(=O)N[C@@H](CCC(=O)O)C(=O)N[C@@H](CCC(=O)O)C(=O)N[C@@H](CC(C)C)C(=O)N[C@@H](CCC(N)=O)C(=O)N[C@@H](CCCNC(=N)N)C(=O)N[C@@H](Cc1ccc(O)cc1)C(=O)N[C@@H](Cc1ccc(O)cc1)C(=O)N[C@H](C(=O)N[C@@H](CO)C(=O)N[C@@H](CC(C)C)C(=O)N[C@@H](CCCNC(=N)N)C(=O)N[C@@H](Cc1c[nH]cn1)C(=O)N[C@@H](Cc1ccc(O)cc1)C(=O)N[C@@H](Cc1ccc(O)cc1)C(=O)N[C@@H](CC(N)=O)C(=O)N[C@@H](Cc1c[nH]c2ccccc12)C(=O)N[C@@H](CC(C)C)C(=O)N[C@H](C(=O)N[C@@H](CCCNC(=N)N)C(=O)N[C@@H](CCC(N)=O)C(=O)N[C@@H](CCCNC(=N)N)C(=O)N[C@@H](Cc1ccc(O)cc1)C(N)=O)[C@@H](C)O)C(C)C [Compound 234, N{alpha-4}-(3-methylbutanoyl)-N{epsilon-7}-[2-(2-{2-[2-(2-{2-[(4S)-4-carboxy-4-(17-carboxyheptadecanamido)butanamido]ethoxy}ethoxy)acetamido]ethoxy}ethoxy)acetamido]-[4A,6A,7K,9E,11E,18Q,22V,28Y,30W,31L]hPYY (4-36)]",42 % vehicle
3,"CC(C)CC(=O)N[C@@H](C)C(=O)N1CCC[C@H]1C(=O)N[C@@H](CCC(=O)O)C(=O)N[C@@H](CCCCNC(=O)COCCOCCNC(=O)COCCOCCNC(=O)CC[C@H](NC(=O)CCCCCCCCCCCCCCCCC(=O)O)C(=O)O)C(=O)N1CCC[C@H]1C(=O)N[C@@H](CCC(=O)O)C(=O)N[C@@H](C)C(=O)N[C@@H](CC(=O)O)C(=O)N[C@@H](C)C(=O)N[C@H](C(=O)N1CCC[C@H]1C(=O)N[C@@H](CCC(=O)O)C(=O)N[C@@H](CCC(=O)O)C(=O)N[C@@H](CC(C)C)C(=O)N[C@@H](CCC(N)=O)C(=O)N[C@@H](CCCNC(=N)N)C(=O)N[C@@H](Cc1ccc(O)cc1)C(=O)N[C@@H](Cc1ccc(O)cc1)C(=O)N[C@H](C(=O)N[C@@H](CO)C(=O)N[C@@H](CC(C)C)C(=O)N[C@@H](CCCNC(=N)N)C(=O)N[C@@H](Cc1c[nH]cn1)C(=O)N[C@@H](Cc1ccc(O)cc1)C(=O)N[C@@H](Cc1ccc(O)cc1)C(=O)N[C@@H](CC(N)=O)C(=O)N[C@@H](Cc1c[nH]c2ccccc12)C(=O)N[C@@H](CC(C)C)C(=O)N[C@H](C(=O)N[C@@H](CCCNC(=N)N)C(=O)N[C@@H](CCC(N)=O)C(=O)N[C@@H](CCCNC(=N)N)C(=O)N[C@@H](Cc1ccc(O)cc1)C(N)=O)[C@@H](C)O)C(C)C)[C@@H](C)O [Compound 14, N{alpha-4}-(3-methylbutanoyl)-N{epsilon-7}-[2-(2-{2-[2-(2-{2-[(4S)-4-carboxy-4-(17-carboxyheptadecanamido)butanamido]ethoxy}ethoxy)acetamido]ethoxy}ethoxy)acetamido]-[4A,7K,9E,10A,13T,18Q,22V,28Y,30W,31L]hPYY (4-36)]",46 % vehicle
4,"CC(C)CC(=O)N[C@@H](C)C(=O)N1CCC[C@H]1C(=O)N[C@@H](CCC(=O)O)C(=O)N[C@@H](CCCCNC(=O)COCCOCCNC(=O)COCCOCCNC(=O)CC[C@H](NC(=O)CCCCCCCCCCCCCCCCC(=O)O)C(=O)O)C(=O)N1CCC[C@H]1C(=O)N[C@@H](CCC(=O)O)C(=O)N[C@@H](CCC(=O)O)C(=O)N[C@@H](CC(=O)O)C(=O)N[C@@H](C)C(=O)N[C@H](C(=O)N1CCC[C@H]1C(=O)N[C@@H](CCC(=O)O)C(=O)N[C@@H](CCC(=O)O)C(=O)N[C@@H](CC(C)C)C(=O)N[C@@H](CCC(N)=O)C(=O)N[C@@H](CCCCN)C(=O)N[C@@H](Cc1ccc(O)cc1)C(=O)N[C@@H](Cc1ccc(O)cc1)C(=O)N[C@H](C(=O)N[C@@H](CO)C(=O)N[C@@H](CC(C)C)C(=O)N[C@@H](CCCNC(=N)N)C(=O)N[C@@H](Cc1c[nH]cn1)C(=O)N[C@@H](Cc1ccc(O)cc1)C(=O)N[C@@H](Cc1ccc(O)cc1)C(=O)N[C@@H](CC(N)=O)C(=O)N[C@@H](Cc1c[nH]c2ccccc12)C(=O)N[C@@H](CC(C)C)C(=O)N[C@H](C(=O)N[C@@H](CCCNC(=N)N)C(=O)N[C@@H](CCC(N)=O)C(=O)N[C@@H](CCCNC(=N)N)C(=O)N[C@@H](Cc1ccc(O)cc1)C(N)=O)[C@@H](C)O)C(C)C)[C@@H](C)O [Compound 231, N{alpha-4}-(3-methylbutanoyl)-N{epsilon-7}-[2-(2-{2-[2-(2-{2-[(4S)-4-carboxy-4-(17-carboxyheptadecanamido)butanamido]ethoxy}ethoxy)acetamido]ethoxy}ethoxy)acetamido]-[4A,7K,9E,13T,18Q,19K,22V,28Y,30W,31L]hPYY (4-36)]",39 % vehicle
5,"CC(C)CC(=O)N[C@@H](C)C(=O)N1CCC[C@H]1C(=O)N[C@@H](CCC(=O)O)C(=O)N[C@@H](CCCCNC(=O)COCCOCCNC(=O)COCCOCCNC(=O)CC[C@H](NC(=O)CCCCCCCCCCCCCCCCC(=O)O)C(=O)O)C(=O)N1CCC[C@H]1C(=O)N[C@@H](CCC(=O)O)C(=O)N[C@@H](C)C(=O)N[C@@H](CC(=O)O)C(=O)N[C@@H](C)C(=O)N[C@@H](CO)C(=O)N1CCC[C@H]1C(=O)N[C@@H](CCC(=O)O)C(=O)N[C@@H](CCC(=O)O)C(=O)N[C@@H](CC(C)C)C(=O)N[C@@H](CCC(N)=O)C(=O)N[C@@H](CCCNC(=N)N)C(=O)N[C@@H](Cc1ccc(O)cc1)C(=O)N[C@@H](Cc1ccc(O)cc1)C(=O)N[C@H](C(=O)N[C@@H](CCC(=O)O)C(=O)N[C@@H](CC(C)C)C(=O)N[C@@H](CCCNC(=N)N)C(=O)N[C@@H](Cc1c[nH]cn1)C(=O)N[C@@H](Cc1ccc(O)cc1)C(=O)N[C@@H](Cc1ccc(O)cc1)C(=O)N[C@@H](CC(N)=O)C(=O)N[C@@H](Cc1c[nH]c2ccccc12)C(=O)N[C@@H](CC(C)C)C(=O)N[C@H](C(=O)N[C@@H](CCCNC(=N)N)C(=O)N[C@@H](CCC(N)=O)C(=O)N[C@@H](CCCNC(=N)N)C(=O)N[C@@H](Cc1ccc(O)cc1)C(N)=O)[C@@H](C)O)C(C)C [Compound 135, N{alpha-4}-(3-methylbutanoyl)-N{epsilon-7}-[2-(2-{2-[2-(2-{2-[(4S)-4-carboxy-4-(17-carboxyheptadecanamido)butanamido]ethoxy}ethoxy)acetamido]ethoxy}ethoxy)acetamido]-[4A,7K,9E,10A,18Q,22V,23E,28Y,30W,31L]hPYY (4-36)]",44 % vehicle
